{"source": "paper PMC4336329", "about": "(PLoS ONE, 2015)", "note": "The whole screen tested about 310,000 compounds, of which about 14,000 (4.5%) showed an effect of 50% or more. The effect is printed as a negative number. The list shows a part of the results.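 Note: peak tail current of the secondary pulse compared with the same well before compound.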", "data": [{"biological_target": "human ether-à-go-go-related gene (hERG) potassium channel (human, UniProt Q12809)", "sequence (Q12809 whole entry, looked up)": "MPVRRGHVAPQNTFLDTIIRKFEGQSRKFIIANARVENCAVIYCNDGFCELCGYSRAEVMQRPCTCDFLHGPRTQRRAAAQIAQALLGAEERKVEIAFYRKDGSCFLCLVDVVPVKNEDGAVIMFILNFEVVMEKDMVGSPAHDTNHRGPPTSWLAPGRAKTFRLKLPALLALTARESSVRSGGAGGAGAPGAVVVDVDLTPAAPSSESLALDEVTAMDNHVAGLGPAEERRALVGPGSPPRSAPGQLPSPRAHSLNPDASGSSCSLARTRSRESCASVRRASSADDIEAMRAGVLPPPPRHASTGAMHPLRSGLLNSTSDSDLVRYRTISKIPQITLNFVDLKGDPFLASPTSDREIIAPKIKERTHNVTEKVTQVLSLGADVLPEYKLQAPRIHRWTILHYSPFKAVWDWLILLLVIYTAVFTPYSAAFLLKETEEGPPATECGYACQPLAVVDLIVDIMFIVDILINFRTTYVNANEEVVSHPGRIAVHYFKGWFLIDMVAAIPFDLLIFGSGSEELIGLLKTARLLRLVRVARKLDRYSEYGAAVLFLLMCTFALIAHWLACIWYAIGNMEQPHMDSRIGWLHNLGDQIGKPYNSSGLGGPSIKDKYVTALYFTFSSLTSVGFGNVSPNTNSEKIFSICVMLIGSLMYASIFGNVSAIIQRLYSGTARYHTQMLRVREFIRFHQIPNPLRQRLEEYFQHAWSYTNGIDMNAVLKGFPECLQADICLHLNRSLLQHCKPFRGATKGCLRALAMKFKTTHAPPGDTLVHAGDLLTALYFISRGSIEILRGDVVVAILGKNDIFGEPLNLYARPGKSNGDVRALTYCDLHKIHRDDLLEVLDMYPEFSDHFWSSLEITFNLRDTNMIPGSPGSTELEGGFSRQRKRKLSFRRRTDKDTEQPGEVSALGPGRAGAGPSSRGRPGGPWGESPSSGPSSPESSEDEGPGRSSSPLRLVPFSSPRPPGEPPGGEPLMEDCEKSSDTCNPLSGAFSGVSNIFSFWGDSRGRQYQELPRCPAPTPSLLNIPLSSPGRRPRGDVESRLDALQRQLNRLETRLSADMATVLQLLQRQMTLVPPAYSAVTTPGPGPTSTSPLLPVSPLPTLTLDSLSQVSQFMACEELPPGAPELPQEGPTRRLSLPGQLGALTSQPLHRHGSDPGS", "assay": "primary screen, population patch clamp on CHO cells stably expressing hERG", "units": {"hERG current change (%, negative = inhibition) at 10uM": "%"}, "values": [{"molecule": "CCOC(=O)CC(=O)CSc1nnc2sc3ccccc3n12", "hERG current change (%, negative = inhibition) at 10uM": 7.59}, {"molecule": "COc1ccc(N2CCN(C(=O)c3cc(C)on3)CC2)cc1", "hERG current change (%, negative = inhibition) at 10uM": 6.64}, {"molecule": "N#CC1=C(N)Oc2n[nH]c(-c3ccc(F)cc3)c2C1c1ccncc1", "note": "(stereo not drawn)", "hERG current change (%, negative = inhibition) at 10uM": 9.26}, {"molecule": "CC1CCC(NC(=O)C(C)N2C(=O)C3CCCCC3C2=O)CC1", "note": "(stereo not drawn)", "hERG current change (%, negative = inhibition) at 10uM": 11.2}, {"molecule": "CCN1CCN(C(=O)CS(=O)Cc2nc(-c3cccc(C)c3)oc2C)CC1", "note": "(stereo not drawn)", "hERG current change (%, negative = inhibition) at 10uM": 3.36}, {"molecule": "O=C1C(c2cc(=O)c3ccccc3[nH]2)=C(O)c2ccccc21", "hERG current change (%, negative = inhibition) at 10uM": 13.2}, {"molecule": "COc1cc(C(=O)NCc2nc(C)cs2)ccc1OC1CCN(C(C)=O)CC1", "hERG current change (%, negative = inhibition) at 10uM": 6.58}, {"molecule": "O=C(O)COc1ccccc1/C=N/NC(=O)CN1CCN(Cc2ccccc2Cl)CC1", "hERG current change (%, negative = inhibition) at 10uM": -0.129}, {"molecule": "Cc1cccc(Cn2cnc3c(nnn3Cc3ccccc3F)c2=O)c1", "hERG current change (%, negative = inhibition) at 10uM": -36.9}, {"molecule": "O=C(CN1CCN(Cc2ccccc2F)C1=O)NCCc1ccc(Cl)cc1", "hERG current change (%, negative = inhibition) at 10uM": -52.8}, {"molecule": "CC(C)N(Cc1ccccc1)C(=O)CN1C(=O)c2ccccc2C1=O", "hERG current change (%, negative = inhibition) at 10uM": 4.96}, {"molecule": "NC(=S)N/N=C/c1cccc(Br)c1", "hERG current change (%, negative = inhibition) at 10uM": 1.68}, {"molecule": "CCc1cc2c(-c3ccccc3)cc(=O)oc2cc1OC(C)C(=O)NCC1CCC(C(=O)O)CC1", "note": "(stereo not drawn)", "hERG current change (%, negative = inhibition) at 10uM": 12.5}, {"molecule": "Cc1cc(S(=O)(=O)N2CCN(CC(=O)NCCc3cccs3)CC2)ccc1Br", "hERG current change (%, negative = inhibition) at 10uM": -29.6}, {"molecule": "Cc1cccc(-c2nc(Nc3ccc(O)cc3)c3ccccc3n2)c1", "hERG current change (%, negative = inhibition) at 10uM": 11.3}, {"molecule": "CC(Sc1nnc(COc2ccc([N+](=O)[O-])cc2)n1C)C(=O)O", "note": "(stereo not drawn)", "hERG current change (%, negative = inhibition) at 10uM": 14.6}, {"molecule": "O=C(CSc1nc2ccccc2o1)Nc1ccc(N2CCOCC2)cc1", "hERG current change (%, negative = inhibition) at 10uM": -4.24}, {"molecule": "C=CCn1c(O)c(/C(C)=N/NC(=S)Nc2ccccc2)c(=O)[nH]c1=O", "hERG current change (%, negative = inhibition) at 10uM": 22.4}, {"molecule": "Cc1cc(C(=O)NCCN2CCOCC2)ccc1[N+](=O)[O-]", "hERG current change (%, negative = inhibition) at 10uM": 19.2}, {"molecule": "CCOC(=O)c1ccc2ncc(C(=O)OCC)c(NCc3ccco3)c2c1", "hERG current change (%, negative = inhibition) at 10uM": -24.7}, {"molecule": "CCOC(=O)CNc1c(N2CCN(c3ccccn3)CC2)c(=O)c1=O", "hERG current change (%, negative = inhibition) at 10uM": 5.74}, {"molecule": "O=C(CSc1ccc(-c2ccco2)nn1)NCc1ccccc1Cl", "hERG current change (%, negative = inhibition) at 10uM": -49.1}, {"molecule": "Cc1ccc(S(=O)(=O)N(C)c2ccc(C(=O)O)cc2)cc1", "hERG current change (%, negative = inhibition) at 10uM": -17.1}, {"molecule": "O=C(CCC(=O)OCC(=O)c1ccccc1)NC1CCCCC1", "hERG current change (%, negative = inhibition) at 10uM": 6.44}, {"molecule": "Cc1cccc(NC(=O)C2CC(=O)n3cnnc3S2)c1", "note": "(stereo not drawn)", "hERG current change (%, negative = inhibition) at 10uM": 0.365}, {"molecule": "COCCCN1C(=O)C(=O)/C(=C(/O)c2ccc(OC)cc2)C1c1cccc(OC)c1", "note": "(stereo not drawn)", "hERG current change (%, negative = inhibition) at 10uM": 1.51}, {"molecule": "CCS(=O)(=O)N1CCC(C(=O)NCCCN2CCN(c3ccccc3F)CC2)CC1", "hERG current change (%, negative = inhibition) at 10uM": -16.3}, {"molecule": "CCOC(=O)C1CCN(C(=O)CSc2nc3ncccc3[nH]2)CC1", "hERG current change (%, negative = inhibition) at 10uM": 7.58}, {"molecule": "COc1ccc(CNC(=O)Nc2cccs2)cc1OC", "hERG current change (%, negative = inhibition) at 10uM": 7.21}, {"molecule": "CSCCC1NC2(C(=O)Nc3c2ccc(Cl)c3C)[C@@H]2C(=O)N(C3CCCC3)C(=O)[C@H]12", "note": "(stereo partly drawn)", "hERG current change (%, negative = inhibition) at 10uM": -20.6}, {"molecule": "c1ccc(CSc2ncnc3c2cnn3-c2ccccc2)cc1", "hERG current change (%, negative = inhibition) at 10uM": 2.68}, {"molecule": "O=C(Cc1ccccc1)Nc1cc(C(=O)c2ccccc2)ccc1N1CCOCC1", "hERG current change (%, negative = inhibition) at 10uM": -28}, {"molecule": "Cc1ccc(-n2c(C)cc(C(=O)NS(=O)(=O)c3ccc(C)cc3)c2C)cc1", "hERG current change (%, negative = inhibition) at 10uM": -30.8}, {"molecule": "CC(C)OC(=O)CCCN1C(=O)c2ccc(N)cc2C1=O", "hERG current change (%, negative = inhibition) at 10uM": -11.2}, {"molecule": "Cc1ccc(NC(=O)Cn2c(O)c(N=NC(=O)c3ccncc3)c3ccccc32)cc1", "hERG current change (%, negative = inhibition) at 10uM": 19.5}, {"molecule": "OCC1(Cc2ccccc2)CCN(Cc2ccccn2)CC1", "hERG current change (%, negative = inhibition) at 10uM": -9.51}, {"molecule": "Cc1nc2c3ccccc3n(CC#N)c(=O)n2n1", "hERG current change (%, negative = inhibition) at 10uM": -0.213}, {"molecule": "CCOC(=O)C(CSCC(=O)c1ccc(Cl)cc1Cl)NC(=O)OC(C)(C)C", "note": "(stereo not drawn)", "hERG current change (%, negative = inhibition) at 10uM": -13.1}, {"molecule": "COc1ccc(-n2c(SCc3nnc(-c4ccccc4)o3)nnc2-c2ccccc2)cc1", "hERG current change (%, negative = inhibition) at 10uM": -29.5}, {"molecule": "OCCOc1ccc(C2=NCCO2)cc1", "hERG current change (%, negative = inhibition) at 10uM": -23.3}, {"molecule": "COc1cccc([C@@H]2Oc3ccc(OC)cc3C(=O)[C@H]2O)c1", "hERG current change (%, negative = inhibition) at 10uM": 16.8}, {"molecule": "CC1=CC(=O)C(C(C)C)=C/C1=N/OC(=O)c1cccc([N+](=O)[O-])c1", "hERG current change (%, negative = inhibition) at 10uM": 7.36}, {"molecule": "Cc1cccc(NC2=C(NC(=O)c3ccccc3)C(=O)c3ccccc3C2=O)c1", "hERG current change (%, negative = inhibition) at 10uM": -19.4}, {"molecule": "CN(C)C(=O)Cn1c(SCC(=O)Nc2ccc3c(c2)OCO3)nc2ccccc21", "hERG current change (%, negative = inhibition) at 10uM": 9.04}, {"molecule": "Cc1ccnc(NC(=O)c2cc(-n3cnnc3)ccc2Cl)c1", "hERG current change (%, negative = inhibition) at 10uM": 15.5}, {"molecule": "COc1ccc(CN2CN(S(=O)(=O)c3cccs3)c3nc4ccccc4nc32)cc1", "hERG current change (%, negative = inhibition) at 10uM": -5.48}, {"molecule": "O=C1/C(=C\\c2ccco2)SC(=S)N1C1CCCCC1", "hERG current change (%, negative = inhibition) at 10uM": 16.3}, {"molecule": "CC(C)NC(=O)/C(C#N)=C\\c1ccc(N(C)C)c(Br)c1", "hERG current change (%, negative = inhibition) at 10uM": 8.22}, {"molecule": "CC1CCCC(NC(=O)c2nn(C)c3c2CS(=O)(=O)c2ccccc2-3)C1C", "note": "(stereo not drawn)", "hERG current change (%, negative = inhibition) at 10uM": -2.12}, {"molecule": "On1c(-c2ccccc2)nc2ccccc21", "hERG current change (%, negative = inhibition) at 10uM": 12.3}, {"molecule": "Cc1oc(-c2cccc(F)c2)nc1CN1CCCCC1CCn1cccn1", "note": "(stereo not drawn)", "hERG current change (%, negative = inhibition) at 10uM": -73.1}, {"molecule": "O=C(OCc1cccnc1)C1=Cc2ccccc2OC1", "hERG current change (%, negative = inhibition) at 10uM": -64.9}, {"molecule": "O=C(COc1ccccc1Cl)Nc1ccccc1C(=O)Nc1cccc(C(=O)O)c1", "hERG current change (%, negative = inhibition) at 10uM": 23.8}, {"molecule": "O=C(O)C1C(c2ccccc2)C(C(=O)N2CCOCC2)C1c1ccccc1", "note": "(stereo not drawn)", "hERG current change (%, negative = inhibition) at 10uM": -7.48}, {"molecule": "O=C(c1ccc(Cl)cc1Cl)c1ncc(C(F)(F)F)cc1Cl", "hERG current change (%, negative = inhibition) at 10uM": -10.1}, {"molecule": "CCN(C(=O)COC(=O)c1ccc(F)c(S(=O)(=O)N2CCOCC2)c1)C1CCS(=O)(=O)C1", "note": "(stereo not drawn)", "hERG current change (%, negative = inhibition) at 10uM": -22.4}, {"molecule": "Cc1cccc(-c2n[nH]c(=S)n2/N=C/c2ccc(C)o2)c1", "hERG current change (%, negative = inhibition) at 10uM": 2.4}]}]}
